PubChem BioAssay AID1508624 (National Center for Advancing Translational Sciences (NCATS), 2021)
Hit rate of the full screen: of about 48,000 compounds, about 120 (0.25%) were called active. Roughly 4% stayed inconclusive and do not appear here. Calls follow the shape of the dose curve; as a rule, active = well fitted activation curve with a large enough effect; inconclusive = small, poorly fitted or top-dose-only effect, or another doubt; inactive = no such curve, though single readings can be large or run the other way. The list shows a part of the results.

Assay: Primary qHTS for Identification of Small Molecule Activators of Huntingtin-Antisense Promoter Activity; also: nearly all actives have a fitted effect of over 55% in size
Settings: HEK293 HTT-AS promoter firefly luciferase reporter, 24 h; series mostly up to 57.5 µM; activity change, positive = activation: at the top concentration
In short: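 Firefly luciferase signal from promoter-reporter HEK293 cells was scaled between vehicle (0%) and zero RLU (-100%). Compounds were tested at final concentrations of up to 57.5 uM over 24 h at 37 degrees C. PTC124 at 50 uM final served as control inhibitor.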

Activity change, positive = activation, inactive:
CCCCc1nc(Cl)c(CO)n1Cc1ccc(-c2ccccc2-c2nn[nH]n2)cc1 0.558%, Cc1cccc(N(CC(=O)NC(C)c2ccccc2)S(=O)(=O)c2ccccc2)c1C (stereo not drawn) -33.5%, Cc1ccc(-c2nn3c(C)nnc3c3ccccc23)cc1S(=O)(=O)NCCO -9.12%, CC(=O)Nc1ccc(S(=O)(=O)NCC2CCC(C(=O)NCCCOC(C)C)CC2)cc1 (stereo not drawn) -1.63%, CCOc1cc(C(=O)OCc2cc(=O)n3c(C)csc3n2)cc(OCC)c1OCC -6.82%, Cc1ccc(CNC(=O)c2cn(C)c3ccc(S(=O)(=O)N(C)C4CCCCC4)cc3c2=O)cc1 -4.61%, CCc1ccc(-n2nc3ccc(NC(=O)c4cc5ccccc5o4)cc3n2)cc1 6.52%, Cc1ccc(CNC(=O)c2nc(SCc3cccc(C)c3)ncc2Cl)cc1 -24.8%, CC(C=CC(=O)NO)=C[C@@H](C)C(=O)c1ccc(N(C)C)cc1 -30.5%, CCOc1ccc(-c2cc3c(=O)n(Cc4nc(-c5cccc(OC)c5OC)oc4C)ccn3n2)cc1Cl -9.49%, CCN(Cc1ccc(OC)cc1)c1ccc(-c2nc(-c3ccncc3)no2)cc1[N+](=O)[O-] -20.4%, CCC(=O)N1CCc2cc(S(=O)(=O)CCC(=O)N3CCN(c4cccc(C)c4)C(C)C3)ccc21 (stereo not drawn) -21.4%, Cc1cc(C)c(Cn2c3ccccc3c3cnn(CC(=O)NCCCc4ccccc4)c(=O)c32)c(C)c1 -19.1%, O=C(NCCc1ccccc1)c1ccc(Cn2c(SCc3ccc(F)cc3)nc3cccnc32)cc1 3.61%, O=C(NCc1cccc(Cl)c1)c1cccn1-c1nnc(N2CCCC2)s1 -5.02%, Cc1ccccc1Nc1c(-c2ccsc2)nc2c(C)cccn12 -8.57%, COc1ccc(OC)c(S(=O)(=O)N2Cc3ccccc3CC2C(=O)Nc2ccc(C(C)=O)cc2)c1 (stereo not drawn) -20.7%, Cc1cccc(C2N3CC4(C(C)C)CN2CC(C(C)C)(C3)C4=O)c1 (stereo not drawn) -9.1%, Cc1ccc(-n2ncc(C(=O)NCc3cccs3)c2C2CCN(C(=O)OC(C)(C)C)CC2)cc1C -39.3%, CCC(Cn1nnc2ccccc2c1=O)NC(=O)Nc1cc(Cl)ccc1OC (stereo not drawn) -19.8%, Cc1cccc(Cn2c(CNS(=O)(=O)c3ccc(Cl)s3)nc3cccnc32)c1 -22%, CCOc1ccc(-c2cc3c(=O)n(CC(=O)Nc4c(C)cccc4C)ccn3n2)cc1 4.38%, Cc1ccc2[nH]c(CSc3nnc(NC(=O)COc4ccccc4F)s3)cc(=O)c2c1 -34.6%, Cn1c(=O)oc2cc(S(=O)(=O)NCCC(=O)Nc3ccc(F)c(Cl)c3)ccc21 -13.1%, CC(C)CN(CCNC(=O)c1cc(=O)[nH]c2ccc(S(=O)(=O)N3CCCCCC3)cc12)CC(C)C -12%, Cc1ccc(Cl)cc1NC(=O)/C(C#N)=C/c1c(C)n(Cc2ccccc2)c2ccccc12 4.79% [at 11.5 µM, percent change from vehicle, -100% = no light], Fc1ccc(-c2csc(-c3nc(-c4ccc(Br)s4)cs3)n2)cc1 -6.23%, CCOc1ccc(NC(=O)CCCN2C(=O)C(c3ccccc3)Oc3cccnc32)cc1 (stereo not drawn) -16.9%, CS(=O)(=O)c1ncc(N(Cc2ccccc2)Cc2ccco2)c(C(=O)Nc2cccc(C(F)(F)F)c2)n1 -19%, CCOC(=O)c1c(NC(=O)c2cc(-c3ccccc3)on2)sc2c1CCCC2 19.6%, CC(C)Cn1c(=O)c2sccc2n2c(CCCC(=O)Nc3ccc(Cl)cc3)nnc12 -15.9%, Cc1cc(C)c(NC(=O)CSc2nc(=O)n(Cc3ccco3)c3c2CCC3)c(C)c1 -23.2%, O=C(NCCc1ccc(Cl)cc1)c1ccc2nc(Cc3ccccc3)oc2c1 -18.1%, COc1cccc(-c2nc(SCc3cc(=O)c4cc(Cl)ccc4[nH]3)n[nH]2)c1 -18.9%, COc1ccc2c(Sc3ccccc3)c(C(=O)NCCN(C)C)[nH]c2c1 -23.5%, Cc1cc2c(cc1S(=O)(=O)Nc1cccc(C(F)(F)F)c1)OCCN2C -25.5%, CCOc1ccc(-c2nonc2NC(=O)c2ccccc2C)cc1 -26.4%, CC(C)Oc1ccc(CNC(=O)Cc2ccc(NC(=O)N3CCSc4ncccc43)cc2)cc1 -18.9%, Cc1ccc2c(c1)c(=O)c(S(=O)(=O)c1ccc(F)cc1)cn2CC(=O)Nc1ccc2c(c1)OCO2 -11.9%, Cc1ccc(Cl)cc1NC(=O)NC1COc2ccccc2C1 (stereo not drawn) -14.7%, O=C(Cc1ccc(Cl)cc1)Nc1ccc2oc(-c3ccccc3)nc2c1 21.5%, CCN(CC)C(=O)c1sc2c(c1C)c(=O)n(-c1ccc(C)c(C)c1)c(=O)n2CC(=O)Nc1ccc(F)cc1 -24.7%, CC(C)(C)C1CCc2c(sc(NC(=O)c3ccccc3F)c2C(=O)N2CCCCC2)C1 (stereo not drawn) -24.2%, CCOc1cc(C#N)c(NC(=O)c2ccc(OC)c(S(=O)(=O)N3CCCC3)c2)cc1OCC -7.96%, O=S(=O)(c1ccccc1)c1nc(-c2ccc(F)cc2)oc1N1CCOCC1 7.03%, O=C(c1nc(-c2ccc(Cl)cc2)n2c1CCCCC2)N1CCN(c2ccc(F)cc2)CC1 -25.9%, CCCOc1ccc(OC(=O)c2sc3ncn(Cc4cccc(F)c4)c(=O)c3c2C)cc1 -3.79%, COc1ccccc1NC(=O)N(Cc1ccco1)C1CCN(C(C)=O)CC1 -12%, Cc1ccc(NC(=O)c2ccc3nc(Cc4ccccc4)oc3c2)cc1F -14.1%, CCCCN(C)CCNC(=O)Cn1ncc2c3ccccc3n(CCC)c2c1=O -21.5%, Cc1cccc(-c2noc(CN(C(=O)c3ccc(C)c(C)c3)C(C)C)n2)c1 -27.5%, COc1ccc(C)cc1N(C)C(=O)c1sc2nc3n(c(=O)c2c1C)CCCCC3 0.213%, Cc1csc2nc(-c3cccc(NC(=O)c4cccc(F)c4)c3)cn12 -6.17%, O=C(CS(=O)Cc1ccco1)NC/C=C\COc1cc(CN2CCCCC2)ccn1 (stereo not drawn) 1.93%, CCCCCn1c(=O)[nH]c2cc(C(=O)NCc3ccc(C)cc3)ccc2c1=O -8.38%, CCOc1ccc(CCNC(=O)C2=C(C)C(=O)OC23CCC(C)CC3)cc1OCC (stereo not drawn) -2.97%, COc1cccc(NC(=O)CSc2nc(-c3ccccc3)nc3c2Cc2cc(Cl)ccc2O3)c1 -5.37%, Cc1ccc(C(=O)c2oc3ccccc3c2NC(=O)c2nc(S(C)(=O)=O)ncc2Cl)cc1F 6.58%, Cc1ccc(C)c(NC(=O)c2cc(S(=O)(=O)NCCC3=CCCCC3)ccc2F)c1 -27.7%, COc1ccc2c(c1)CCc1c(C(=O)Nc3c(C)nn(Cc4ccc(C)cc4)c3C)noc1-2 -46.9%, COc1ccc(CNC(=O)C(C(C)C)N2Cc3ccccc3C2=O)cc1 (stereo not drawn) -11.6%, CCCN(CCC)C(=O)C1CCN(c2ncnc3c2nc2n3CCCCC2)CC1 -2.63%, CCOc1ccc(CCNC(=O)CN(c2ccc(C)cc2)S(=O)(=O)N(C)C)cc1OCC -17.6%, O=c1c(S(=O)(=O)c2ccccc2)cn(Cc2ccc(F)cc2)c2cc(N3CCCCC3)c(F)cc12 -11.2%, CC1Cn2cc(C(=O)Nc3cccc(C(F)(F)F)c3)c(=O)c3c(Cl)ccc(c32)O1 (stereo not drawn) -4.48%, COC(=O)c1nnn(CC(=O)Nc2ccc(Br)c(C)c2)c1N 23.8%, Cc1ccc(-c2onc(C)c2C)cc1S(=O)(=O)NC1CCCCC1 -46.5%, C[C@H]1C[C@@H]2[C@H]([C@@H](O)C[C@@]3(C)[C@H]2CC[C@]3(O)C(=O)CO)[C@@]2(C)C=CC(=O)C=C12 -4.02%, Cc1ccc(-n2c(=O)c3c(c4cc(C)ccc4n3C)n(CC(=O)Nc3cc(C)cc(C)c3)c2=O)cc1 -1.31%, COc1ccc(NC(=O)c2ccc(COc3ccccc3OC)o2)cc1OC 16%, CCn1cc(C(=O)NCc2ccccc2)c(=O)c2cc(S(=O)(=O)N3CCCCCC3)ccc21 -15.9%, COc1cccc(CNC(=O)CCC(=O)N2Cc3cccc(OC)c3Oc3ncccc32)c1OC -24.2%, CCCNC(=O)CCc1c(C)nc2nc(-c3cc(OC)cc(OC)c3)nn2c1C -22.6%, Cc1ccc(OCc2nc3ccccc3n2Cc2ccccc2Cl)cc1 -16.3%, O=C(Cc1ccccc1)Nc1c(C(=O)Nc2ccccc2F)oc2ccccc12 -2.03%, CCc1ccc(-c2[nH]c3c(c2-c2sc(C)c(C(=O)OC)c2O)c(=O)n(C)c(=O)n3C)cc1 -3.05%, Cc1cccc(-n2nnnc2S(C)(=O)=O)c1 -95.1%, COc1ccc(N(C)C(=O)CCS(=O)(=O)c2cccc3nsnc23)cc1 -13.5%, COc1cccc2sc(N(Cc3cccnc3)C(=O)C3COc4ccccc4O3)nc12 (stereo not drawn) -13.5%, COc1cccc2c1C(=O)c1c(O)c3c(c(O)c1C2=O)C[C@@](O)(C(=O)CO)C[C@H]3O[C@H]1C[C@H](N)[C@H](O)[C@H](C)O1 -48.3%, Cc1c(NC(=O)c2ccccc2F)cccc1-c1nc2cccnc2s1 -2.71%, O=C(Cn1ncc2c(=O)oc3ccccc3c21)NCc1ccc(Cl)cc1 -6.76%, CC(=O)N1CCCc2cc(S(=O)(=O)N(C)CC(=O)Nc3ccc(Cl)cc3C)ccc21 -21.5%, NC(=O)C1(N2CCCCC2)CCN(CCCN2c3ccccc3CCc3ccc(Cl)cc32)CC1 -37.8%, CCC(=O)N1CCc2cc(Br)cc(S(=O)(=O)NCCc3ccccc3)c21 -28.3%, CCCCC/C=C\C/C=C\CCCCCCCC(=O)NC(C)c1ccccc1 (stereo not drawn) -18.4%, O=C(NCCCN1CCN(c2ccccc2F)CC1)c1nnc(Cc2ccc(Cl)cc2Cl)o1 -23.5%, CCOC(=O)c1c(NC(=O)COc2ccc(F)cc2)sc2c1CCC(C)C2 (stereo not drawn) 8.41%, CC(C)(C)C(=O)Nc1cccc(C(=O)OCc2cc(=O)n3nc(C4CCCCC4)sc3n2)c1 -3.14%, O=C(CSc1nc2ccccc2n1Cc1ccccc1Cl)NCc1ccccc1 -25.8%, CCOC(=O)c1[nH]cnc1C(=O)Nc1ccc(F)cc1 -9.95%, CCCCN(C)CCNC(=O)c1nn(-c2ccc(OC)cc2)c(=O)c2c1c1ccccc1n2C 3.9%, COc1cccc(CNC(=O)CCNS(=O)(=O)c2ccc3c(c2)oc(=O)n3C)c1 -3.72%
